Assay results reported in PubChem BioAssay AID1963576 (National Center for Advancing Translational Sciences (NCATS), 2024).
In all, about 46,000 compounds went through this assay and about 60 (0.1%) were called active. Another 3% or so got no clear call; they are omitted. The call rests on the fitted dose curve; in most records, active means well fitted inhibition curve with a large enough effect; inconclusive means small, poorly fitted or top-dose-only effect; inactive means no such curve, though single readings can be large or run the other way. Some of the results follow.

test: Primary qHTS assay for Inhibitors of ovarian cancer metastasis using an organotypic tumor microenvironment (TME) model.; further: nearly all actives have a fitted effect of over 65% in size;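 on activity change, negative = inhibition: plate controls were DMSO wells for no effect and tomatine positive control wells for full effect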; details: SKOV3ip1-GFP adhesion/invasion on 3D omental model, fluorescence; series mostly up to 45.8 µM; activity change, negative = inhibition: at the top concentration
Summary of the method: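 Primary human omental fibroblast/mesothelial 3D culture pre-formed 48 h. SKOV3ip1-GFP cells added with compounds (0.36-46 umol/L), incubated 2 h RT/16 h 37 C, fixed; GFP cells quantified at 488/509 nm.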

Activity change, negative = inhibition, inactive:
CCOC(=O)c1c(S(=O)(=O)NCC(=O)Nc2cccc(CC)c2)c(C)n(C)c1C -2.09%, CCOc1ccc(NC(=O)c2cc(S(=O)(=O)NC3CCCC3)ccc2F)cc1 -4.83%, COC(=O)Cn1c(CN2CCN(c3ccc(OC)cc3)CC2)nc2c1c(=O)[nH]c(=O)n2C -7.92%, CCc1ccc(NC(=O)CSc2nc(-c3ccccc3)c(C#N)c(=O)[nH]2)cc1 -4.74%, CCN(CC)C(=O)c1sc2c(c1C)c(=O)n(-c1ccccc1)c(=O)n2Cc1cc(=O)n2ccccc2n1 4.93%, Clc1cccc(-c2csc(-c3nc(-c4ccc(Br)s4)cs3)n2)c1 11.9%, CCCCn1cc(S(=O)(=O)c2ccc(OC)cc2)c(=O)c2cc(F)c(F)cc21 -7.38%, COc1ccc(-n2c(=O)c3c(c4cc(OC)ccc4n3C)n(Cc3ccc(F)cc3Cl)c2=O)cc1 4.13%, CCc1ccc(CNC(=O)Cn2c(-c3cccs3)cc3cc(F)ccc32)cc1 18.2%, O=C(Nc1cnc(N2CCC(N3CCCCC3)CC2)c(C(=O)O)c1)c1ccc(Br)cc1 3.66%, Cc1ccc(CSc2nc3ccc(NC(=O)COc4ccc(F)cc4)cc3s2)cc1 4.14%, CCn1nc(C)c(CCN(C)C(=O)Nc2cc(C)cc(C)c2)c1C 6.91%, Cc1cc(C)nc(-n2nc(C)c3c2NC(=O)CC3c2cc(F)ccc2F)n1 (stereo unspecified) 6.35%, CCn1ccc2c(OCC(=O)NCc3ccc(C)cc3)cccc2c1=O 3.91%, COc1ccccc1NC(=O)Cn1c(=O)n(Cc2ccccc2)c(=O)c2c3c(sc21)CN(C(C)=O)CC3 8.83%, Cc1ccc(NC(=O)c2cc3c([nH]c2=O)CC(C)(C)CC3=O)c(C)c1 8.88%, COc1ccc(CNC(=O)CSc2n[nH]c(-c3ccc(OC)cc3)n2)cc1 -1.33%, CC(C)Sc1ncc(Cl)c(C(=O)Nc2ccc(S(=O)(=O)Nc3ncccn3)cc2)n1 -14.6%, Cn1c(=O)cc(SCC(=O)N2CCN(c3ccccc3F)CC2)c2cc(Cl)ccc21 -18.2%, CC(C)c1ccc2c(c1)-c1ccccc1S(=O)(=O)N2CC(=O)N1CCCCC1 -6.21%, O=C(CSc1ncc(-c2ccccc2)[nH]1)Nc1cccc(C(F)(F)F)c1 -17.3%, Cc1cc(Cl)ccc1OCC(=O)Nc1c(C(=O)c2ccccc2)oc2ccccc12 5.93%, Cc1ccc(-n2c(SCC(=O)NCc3ccccc3)nc3c([nH]c4ccccc43)c2=O)cc1 -8.84%, COc1cc(CN(C(=O)c2cccc(C)c2)c2ccccn2)cc(OC)c1OC -9.03%, COC(=O)c1cc(NC(=O)c2sc3ncn(Cc4cccc(F)c4)c(=O)c3c2C)cc(C(=O)OC)c1 8.4%, Cc1ccccc1CCNC(=O)C1CCN(c2nc3ccccc3nc2C(F)(F)F)CC1 4.92%, O=C(NCC1CCN(Cc2cccc(Cl)c2)CC1)c1cc2ccc3cccnc3c2[nH]1 -1.21%, Cc1ccc(C)c(N2CCN(C(=O)CCn3c(=O)c4cccn4c4cccnc43)CC2)c1 -6.59%, COc1ccccc1CNC(=O)Cn1c(=O)oc2cc(S(=O)(=O)NCc3ccccc3)ccc21 -7.84%, CCN(Cc1ccccc1)C(=O)CN1C(=O)COc2ccc(S(=O)(=O)N(CC)CC)cc21 36.9%, Cc1cc(C)c2c(CC(=O)Nc3ccc(S(=O)(=O)Nc4ncccn4)cc3)coc2c1 16.4%, COc1ccc(NC(=O)CN(C)S(=O)(=O)c2cnc[nH]2)cc1Cl 18.4%, Cc1ccc(-c2[nH]c(-c3ccccc3)nc2SCC(=O)NCC2CCCO2)cc1 (stereo unspecified) -12.9%, Cn1c2ccccc2c2c3c(c4c5ccccc5n(CCC#N)c4c21)CNC3=O 7.46%, CCc1cccc(C)c1NC(=O)Cn1ccn(Cc2ccc(Cl)cc2)c(=O)c1=O -2.34%, COc1ccc(-c2noc(COc3ccc(Br)cc3C)n2)cc1OC -4.74%, O=C(O)c1ccc(NC(=O)c2cn(-c3ccccc3)nc2-c2ccc(Br)cc2)cc1 -3.36%, Cc1ccc(OCC(=O)Nc2cccc(C(=O)OCc3cc(=O)n4nc(C)sc4n3)c2)cc1 -1.63%, CCC(O)c1cc2c(cc1NC(=O)c1ccccc1F)OCCO2 (stereo unspecified) -5.23%, O=C(CC1N=C2c3ccccc3N=C(SCc3cccc(F)c3)N2C1=O)NCc1ccc2c(c1)OCO2 (stereo unspecified) -12.7%, Cc1ccc2c(c1C)NC(=O)CC2c1ccc(Cl)cc1Cl (stereo unspecified) 4.95%, Cc1ccc2nc(Cl)c3cc(C(=O)NC4CCC(C)CC4)sc3c2c1 (stereo unspecified) 0.265%, Cc1ccc(-c2cc(C(=O)Oc3ccccc3Cl)no2)cc1C 8.69%, CCc1ccc(C(=O)Nc2cc(CN3CCN(C)CC3)cc(C(F)(F)F)c2)cc1C#Cc1cnc2ccnn2c1 1.68%, COc1cccc(CNC(=O)C(=O)Nc2ccc3nc4n(c(=O)c3c2)CCCCC4)c1 9.69%, CS(=O)(=O)N1CCCc2cc(C(=O)Nc3cccc(C(F)(F)F)c3)ccc21 -25.1%, COc1ccc(CCNC(=O)c2ccc3c(Cl)c4c(nc3c2)CCCC4)c(OC)c1 3.38%, COC(=O)c1cnc(N2CCN(c3ccc(F)cc3)CC2)c2ccccc12 -1.57%, Cc1cccc(OCC(=O)N(Cc2ccccc2)c2ccccn2)c1 -27.5%, COC(=O)c1ccc(CSc2nc3c(c(=O)[nH]2)CCC3)cc1 -2.35%, COc1cc(-c2nc(-c3cccc(Cl)c3)c(-c3ccccc3)[nH]2)cc(OC)c1OC -20.6%, CC1CCC(NC(=O)c2ccc(CS(=O)(=O)c3c(Cl)cccc3Cl)o2)CC1 (stereo unspecified) 3.45%, Cc1ccc(NC(=O)Cn2c(=O)n(Cc3ccc4c(c3)OCO4)c(=O)c3ccccc32)c(C)c1 5.23%, CCc1ccccc1NC(=O)Cn1c(=O)n(Cc2ccco2)c(=O)c2sc3ccccc3c21 -6.46%, O=C(NCCS(=O)(=O)N1CCN(c2ccc(F)cc2)CC1)C1CC(=O)N(c2ccc(F)cc2)C1 (stereo unspecified) 2.46%, COc1ccc(CCNC(=O)CCSCc2ccccc2Cl)cc1OC -1.18%, CCCCc1ccc(NC(=O)CSc2nc3ccccc3nc2N2CCOCC2)cc1 4.7%, O=C(Nc1cc(Cl)cc(Cl)c1)c1ccc(F)c(S(=O)(=O)NC2CCCCC2)c1 -8.08%, COc1ccc2nc(NC(=O)c3nc(SCc4ccccc4F)ncc3Cl)sc2c1 2.51%, Cc1cc(C)n(-c2nc3cc(Cl)ccc3nc2Nc2ccc(CC(=O)O)cc2)n1 2.6%, CCNC(=O)C1CCN(c2nnc(C)c3c(C)n(-c4ccc(OC)cc4)nc23)CC1 -2.28%, Cc1cccc(NC(c2ccccc2C)c2ccc3ccc(C)nc3c2O)n1 (stereo unspecified) 13.2%, COC(=O)c1c(-c2cccs2)csc1NC(=O)c1ccc(OC)c(OC)c1 -3.84%, COc1ccc(S(=O)(=O)c2c(SC)nn(CC(=O)Nc3cccc(C)c3C)c2N)cc1 0.319%, Cc1ccc(-c2nc(CS(=O)(=O)CC(=O)NCCc3ccccc3)c(C)o2)cc1 -1.94%, Cc1ccc2c(c1)NC(=O)c1cccnc1O2 -4.93%, CCn1cc(C(=O)NCc2ccc(C)cc2)c(=O)c2cc(S(=O)(=O)N(C)C3CCCCC3)ccc21 -4.61%, CCC(C)NC(=O)CSc1nc2c(sc3ccccc32)c(=O)n1CCc1ccc(OC)c(OC)c1 (stereo unspecified) 7.77%, O=C(Nc1ccc(OCc2cc(=O)n3ccccc3n2)cc1)c1ccccc1Cl -11.5%, CCC(C)Nc1oc(-c2ccc(COc3ccc(Cl)cc3)o2)nc1C#N (stereo unspecified) 0.735%

outcome, inactive:
COc1ccccc1NC(=O)c1c(NC(=O)Cc2ccccc2)sc2c1CCC(C(C)(C)C)C2 (stereo unspecified), COc1ccc(-c2cc(C(C)=O)c(C)n2CCC(=O)Nc2ccc(C(F)(F)F)cc2)cc1, Nc1nonc1C(=O)NCCNCc1ccc(Cl)c(Cl)c1, Cc1ccccc1-c1nc(CS(=O)(=O)CC(=O)Nc2cc(Cl)cc(Cl)c2)c(C)o1, CCOc1ccc(C(=O)NCCn2cc(SCC(=O)Nc3ccccc3)c3ccccc32)cc1, O=C(NCc1ccccc1Cl)c1cc(=O)[nH]c2ccc(S(=O)(=O)N3CCCCC3)cc12, CCC1CCCCN1C(=O)c1nn(-c2ccc(OC)cc2)c(=O)c2c1c1ccccc1n2C (stereo unspecified), COc1ccccc1NC(=O)CCS(=O)(=O)c1cc2c3c(c1)CCN3C(=O)CC2, COc1ccccc1Nc1nc(-c2ccccc2Cl)c2cc(Br)ccc2n1, CC1=C(C(=O)Nc2ccc(Cl)cc2)C(C(C)C)n2nc(SCc3ccc(Cl)cc3)nc2N1 (stereo unspecified), O=C(Cn1nc(C(F)(F)F)c2c1CCC2)Nc1ccc(Cl)cc1, COc1ccc(OC)c(CCNC(=O)C2=C(C)C(=O)OC23CCC(C)CC3)c1 (stereo unspecified), c1ccc(-c2nnc(CN3CCN(c4ccccc4)CC3)o2)cc1, COc1ccc(C2C(=O)N(C3CCCCCC3)CC(=O)N2CCC2=CCCCC2)cc1 (stereo unspecified), Cc1ccc2nc(N3CCN(c4cccc(C)c4C)CC3)c3nncn3c2c1, Cc1ccc(C)c(N2CCN(S(=O)(=O)c3cnc(N)nc3)CC2)c1, CC(C)c1ccc2oc(-c3ccc(NC(=O)c4cc5ccccc5o4)cc3)nc2c1, COc1cccc(-c2cc(C(=O)Nc3ccn(Cc4ccc(C)cc4)n3)no2)c1, CC(C)CCn1c(=O)c2sccc2n2c(CCCC(=O)NC3CCC(C)CC3)nnc12 (stereo unspecified), CCOC(=O)c1ccc2c(c1)N(Cc1ccccc1)C(=O)c1ccccc1S2, CCCCn1c(NCc2cc(Br)ccc2O)nc2ccccc21, COc1ccccc1CNC(=O)C1CCN(S(=O)(=O)c2ccc3c(ccn3C)c2)CC1, COc1ccc(CNC(=O)Cn2nc(N3CCN(c4ccccc4)CC3)ccc2=O)c(OC)c1, CCc1ccc(CN(Cc2ccco2)C(=O)COc2ccc(Cl)c(C)c2)cc1, CCN(CC)c1nc2c(S(=O)(=O)c3cccc(Cl)c3)nnn2c2ccsc12, CC1=C(C(=O)Nc2ccccc2)C(c2ccncc2)n2nc(SCc3ccccc3F)nc2N1 (stereo unspecified)
